Reference: paper PMC4094278, “The Dictyostelium discoideum RACK1 orthologue has roles in growth and development” (Cell Communication and Signaling : CCS, 2014)
These are yes or no findings as the source states them, for the method shown. Binding seen in cells or lysates may run through a third protein. Some binding calls cover weakened binding; strength is not graded here. For some of these results: Tags and fused reporters may be left off the sequences shown.

Assays:
Gα2-RFP (D. discoideum) = target: T1, Gα2-RFP (D. discoideum) (UniProt P16051); assay: co-IP; GFP-, YFP- or RFP-tagged protein from AX2 lysates bound to GFP-trap or RFP-trap beads; lysis in 10 mM Tris/HCl pH 7.4, 150 mM NaCl, 0.5% NP40; 3 h; endogenous DdRACK1 detected by western blot with polyclonal antibodies
T1 sequence: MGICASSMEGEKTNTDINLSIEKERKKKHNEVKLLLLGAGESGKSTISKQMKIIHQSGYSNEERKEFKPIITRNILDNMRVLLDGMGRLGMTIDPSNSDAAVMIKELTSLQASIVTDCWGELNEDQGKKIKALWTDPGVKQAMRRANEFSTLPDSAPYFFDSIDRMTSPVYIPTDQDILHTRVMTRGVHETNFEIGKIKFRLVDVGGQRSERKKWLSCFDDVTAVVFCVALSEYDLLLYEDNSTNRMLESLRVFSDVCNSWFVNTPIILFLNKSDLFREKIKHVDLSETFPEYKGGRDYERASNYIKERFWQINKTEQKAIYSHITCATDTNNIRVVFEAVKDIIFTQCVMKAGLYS

GFP-Gβ (D. discoideum) = target: T2, GFP-Gβ (D. discoideum) (UniProt P36408); assay: as above
T2 sequence: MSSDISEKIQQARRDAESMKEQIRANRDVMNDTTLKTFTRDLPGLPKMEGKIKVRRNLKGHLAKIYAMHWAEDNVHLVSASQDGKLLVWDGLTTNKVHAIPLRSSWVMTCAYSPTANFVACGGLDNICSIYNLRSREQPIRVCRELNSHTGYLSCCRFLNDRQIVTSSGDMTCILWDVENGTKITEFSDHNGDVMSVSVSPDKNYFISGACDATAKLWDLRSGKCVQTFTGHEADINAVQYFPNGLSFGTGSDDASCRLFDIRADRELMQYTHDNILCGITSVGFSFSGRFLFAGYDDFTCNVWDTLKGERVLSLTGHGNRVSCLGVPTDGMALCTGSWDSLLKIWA

Gα4-RFP (D. discoideum) = target: T3, Gα4-RFP (D. discoideum) (UniProt P34042); assay: as above
T3 sequence: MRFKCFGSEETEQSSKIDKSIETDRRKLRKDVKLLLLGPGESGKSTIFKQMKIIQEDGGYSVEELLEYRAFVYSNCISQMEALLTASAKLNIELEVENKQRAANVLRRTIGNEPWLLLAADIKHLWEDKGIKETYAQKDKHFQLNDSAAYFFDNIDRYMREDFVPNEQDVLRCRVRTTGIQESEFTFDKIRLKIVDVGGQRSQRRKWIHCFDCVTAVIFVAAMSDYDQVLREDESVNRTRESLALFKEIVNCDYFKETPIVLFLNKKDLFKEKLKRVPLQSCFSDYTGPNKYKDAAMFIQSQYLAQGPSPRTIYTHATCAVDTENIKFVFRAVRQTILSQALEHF

Gγ-YFP (D. discoideum) = target: T4, Gγ-YFP (D. discoideum) (UniProt Q95ZG8); assay: as above
T4 sequence: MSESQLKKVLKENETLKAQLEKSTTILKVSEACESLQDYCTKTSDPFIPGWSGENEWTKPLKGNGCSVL

Gα8-RFP (D. discoideum) = target: T5, Gα8-RFP (D. discoideum) (UniProt P34046); assay: as above
T5 sequence: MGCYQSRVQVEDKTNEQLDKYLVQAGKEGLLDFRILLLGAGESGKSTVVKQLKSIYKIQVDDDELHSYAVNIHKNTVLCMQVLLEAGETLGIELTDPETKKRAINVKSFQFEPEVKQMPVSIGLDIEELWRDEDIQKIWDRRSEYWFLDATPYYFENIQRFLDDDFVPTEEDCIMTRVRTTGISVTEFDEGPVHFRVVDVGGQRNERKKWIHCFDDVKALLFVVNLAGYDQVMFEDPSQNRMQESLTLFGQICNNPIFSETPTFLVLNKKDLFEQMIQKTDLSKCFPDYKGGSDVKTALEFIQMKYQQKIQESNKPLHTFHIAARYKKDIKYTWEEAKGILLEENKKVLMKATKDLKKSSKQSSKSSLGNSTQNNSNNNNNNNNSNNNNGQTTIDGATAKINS

[1] = target: T6, GFP-DdRACK1 (D. discoideum) (UniProt P46800); assay: as above
T6 sequence: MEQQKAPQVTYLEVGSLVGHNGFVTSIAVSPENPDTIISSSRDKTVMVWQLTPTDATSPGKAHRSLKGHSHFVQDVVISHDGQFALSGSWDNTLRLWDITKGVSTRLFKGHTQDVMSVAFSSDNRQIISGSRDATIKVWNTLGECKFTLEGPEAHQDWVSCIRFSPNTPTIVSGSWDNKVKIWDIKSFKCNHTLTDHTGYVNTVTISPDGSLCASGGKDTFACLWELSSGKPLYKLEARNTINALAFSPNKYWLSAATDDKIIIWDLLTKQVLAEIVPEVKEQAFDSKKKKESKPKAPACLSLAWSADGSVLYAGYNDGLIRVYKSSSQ

GST-Gα2 (D. discoideum) = target: T7, GST-Gα2 (D. discoideum) (UniProt P16051); assay: pull-down; GST or GST-fusion proteins on beads incubated 3 h with AX2 lysate (50 mM Tris/HCl pH 7.4, 150 mM NaCl, 0.5% NP40); endogenous DdRACK1 detected by western blot; only the target purified
T7 sequence: T1 sequence

GST-Gα4 (D. discoideum) = target: T8, GST-Gα4 (D. discoideum) (UniProt P34042); assay: as above
T8 sequence: T3 sequence

GST-Gγ (D. discoideum) = target: T9, GST-Gγ (D. discoideum) (UniProt Q95ZG8); assay: as above
T9 sequence: T4 sequence

GST-Gα8 (D. discoideum) = target: T10, GST-Gα8 (D. discoideum) (UniProt P34046); assay: as above
T10 sequence: T5 sequence

binding (Gα2-RFP (D. discoideum)): binds
binding (GFP-Gβ (D. discoideum)): binds
binding (Gα4-RFP (D. discoideum)): binds
binding (Gγ-YFP (D. discoideum)): binds
binding (Gα8-RFP (D. discoideum)): binds
binding [1]: binds
binding (GST-Gα2 (D. discoideum)): binds
binding (GST-Gα4 (D. discoideum)): binds
binding (GST-Gγ (D. discoideum)): binds
binding (GST-Gα8 (D. discoideum)): binds
B1: endogenous DdRACK1 (protein, UniProt P46800 1-329)
chain: T6 sequence
